# Data from paper PMC3240821 (Structure (London, England : 1993), 2011).
# Target: T1, recombinant Ex-FABP (Gallus gallus, UniProt P21760)
# T1 sequence (P21760 23-178): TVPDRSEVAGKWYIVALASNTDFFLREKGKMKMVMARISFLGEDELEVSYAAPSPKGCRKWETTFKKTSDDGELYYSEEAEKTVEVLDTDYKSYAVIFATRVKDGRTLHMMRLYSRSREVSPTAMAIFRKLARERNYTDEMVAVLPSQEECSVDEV
# Assay: Fluorescence quenching
# Type: binding, chicken
# [1] = protein 100 nM in TBS pH 7.4, detection threshold KD ≤ 600 nM
Molecule,Kd [1],Kd (pH 7.4)
"CC(=O)N([O-])CCCCCNC(=O)CCC(=O)N([O-])CCCCCNC(=O)CCC(=O)N([O-])CCCCCN.[Fe+3] [[Fe^III(DesferrioxamineB)], ferric desferrioxamine]",> 600 nM,
alcaligin [[Fe^III2(Alcaligin)3]],> 600 nM,
ferric petrobactin [[Fe^III(Petrobactin)]^2−],,> 600 nM
ferric rhizoferrin [[Fe^III(Rhizoferrin)]],> 600 nM,
